# PubChem BioAssay AID1159614 (National Center for Advancing Translational Sciences (NCATS), 2016)
# Screen size: about 45,000 compounds; about 65 (0.1%) were called active. The call rests on the fitted dose curve; in most records, active means well fitted activation curve with a large enough effect; inconclusive means small, poorly fitted or top-dose-only effect; inactive means no such curve, though single readings can be large or run the other way. The list shows a part of the results.
# Target: Galactocerebrosidase (Homo sapiens) (UniProt P54803)
# Sequence of UniProt P54803 (P54803 whole entry, looked up): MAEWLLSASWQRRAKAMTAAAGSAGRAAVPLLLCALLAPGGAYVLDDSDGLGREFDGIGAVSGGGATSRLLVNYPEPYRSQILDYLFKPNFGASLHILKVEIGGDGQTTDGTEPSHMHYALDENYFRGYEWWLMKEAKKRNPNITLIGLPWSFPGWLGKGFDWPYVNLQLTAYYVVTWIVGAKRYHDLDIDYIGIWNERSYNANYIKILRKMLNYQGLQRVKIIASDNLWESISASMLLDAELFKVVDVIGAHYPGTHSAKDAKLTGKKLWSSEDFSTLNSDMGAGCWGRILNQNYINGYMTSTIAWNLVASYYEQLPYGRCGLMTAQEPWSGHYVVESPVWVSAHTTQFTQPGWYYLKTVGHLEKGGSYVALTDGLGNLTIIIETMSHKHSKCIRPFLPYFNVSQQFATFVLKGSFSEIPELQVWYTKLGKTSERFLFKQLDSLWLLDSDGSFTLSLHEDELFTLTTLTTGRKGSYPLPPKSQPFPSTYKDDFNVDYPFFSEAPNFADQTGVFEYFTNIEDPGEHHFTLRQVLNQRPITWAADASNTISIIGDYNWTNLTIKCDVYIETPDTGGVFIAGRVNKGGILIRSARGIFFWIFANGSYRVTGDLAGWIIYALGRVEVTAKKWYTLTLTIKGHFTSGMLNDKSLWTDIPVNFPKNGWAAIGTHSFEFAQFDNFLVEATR
# Experiment: A Novel Cell-Based Assay to Identify Small Molecules for B -Galactocerebrosidase; further: 0% is about no effect; nearly all actives have a fitted effect of over 65% in size
# Details: 145M-Twi-hGALC-G270D cells (Twitcher mouse brain line with human GALC G270D), HMU-beta-Gal fluorescence, 48 h; series mostly up to 57.5 µM; activation: at the top concentration
# Summary of the method: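 Brain-derived Twitcher mouse 145M-Twi cells stably expressing human GALC-G270D or wild-type GALC, treated live, then residual GALC activity read by fluorescence of HMU-b-Gal substrate (0.1 mM final) in citrate-phosphate buffer pH 5.2 with sodium taurocholate. Signal increase indicates enhancement.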
row,Structure (SMILES),activation
1,Cc1c(C(=O)NCc2ccc(F)cc2)oc2ccc(S(=O)(=O)N3CCCCC3)cc12,inactive: -5.45%
2,Cc1ccc2c(c1)c1c(c(=O)n(-c3cccc(Cl)c3)c(=O)n1CC(=O)NCC1CCCO1)n2C (stereo not given),inactive: -8.69%
3,CCOC(=O)C1CCCN(c2nc3c(S(=O)(=O)c4ccc(CC)cc4)nnn3c3ccsc23)C1 (stereo not given),inactive: -10.8%
4,COc1ccc(NC(=O)[C@H]2O[C@@H]3OC(C)(C)O[C@@H]3[C@H]3OC(C)(C)O[C@H]32)c(OC)c1,inactive: -7%
5,CC(C)CCNC(=O)CN1C(=O)CSc2ccc(S(=O)(=O)N3CCC(C)CC3)cc21,inactive: -11.2%
6,Cc1ccc2nc(-c3cccs3)c(Nc3c(C)cccc3C)n2c1,inactive: 5.94%
7,CCOC(=O)Cc1ccc(NC(=O)Nc2c[nH]c(=O)[nH]c2=O)cc1,inactive: -2.94%
8,CCc1cccc(NC(=O)CCc2nc3cccnc3n2Cc2ccc(OC)cc2)c1,inactive: -6.17%
9,Cc1ccccc1OCC(=O)Nc1ccc(-c2nc3ccccc3o2)cc1,inactive: -17.4%
10,Cn1c(=O)[nH]c(=O)c2c1nc(N1CCOCC1)n2Cc1ccccc1,inactive: -9.27%
11,Cc1ccc(NC(=O)c2nc(S(C)(=O)=O)ncc2N(Cc2ccc(C(C)(C)C)cc2)Cc2ccco2)cc1C,inactive: -9.88%
12,O=S(=O)(c1ccc(OC(F)(F)F)cc1)N1CCC(c2nnnn2-c2ccc(F)cc2)CC1,inactive: 1.28%
13,CN(C(=O)CCc1nc(-c2ccccc2F)no1)c1ccc(Cl)cc1,inactive: -11.1%
14,COc1ccc(-c2noc(CSCC(=O)Nc3cc(OC)c(OC)c(OC)c3)n2)cc1OC,inactive: -4.93%
15,CCn1cc(C(=O)OCC(=O)Nc2ccc(C)c(Cl)c2)c(=O)c2ccc(C)nc21,inactive: -15.7%
16,CCN1CCSc2ccc(C(=O)NCc3ccc(OC(C)C)cc3)cc21,inactive: -10.4%
17,CCOc1ccc(-c2cc3c(=O)n(CC(=O)NCc4ccc(C)cc4)ccn3n2)cc1,inactive: -13.5%
18,COc1cc(C(=O)NCC(c2ccc3c(c2)OCO3)N2CCOCC2)cc(OC)c1OC (stereo not given),inactive: -19.3%
19,CCCC(O)c1nc2ccccc2n1CCCOc1ccc(Cl)cc1 (stereo not given),inactive: -34%
20,CCc1cccc(NC(=O)C2CCCN(c3ncnc4onc(-c5ccc(F)cc5)c34)C2)c1 (stereo not given),inactive: -6.6%
21,CC(=O)N1c2ccccc2CC1C(=O)N1CCN(c2ccccc2)CC1 (stereo not given),inactive: -0.92%
22,Cc1ccc(NC(=O)c2c(C)cc(C)nc2SCC(=O)Nc2ccc(Br)cc2)cc1,inactive: -11.2%
23,COc1ccc(N(Cc2cc3ccccc3[nH]c2=O)C(=O)c2cccc(Cl)c2)cc1,inactive: -3.43%
24,CCOC(=O)Cc1ccc(NC(=O)NCc2c(-n3cccc3)sc3c2CCCC3)cc1,inactive: -9.11%

row,Structure (SMILES),activation
1,CCCCN1CC(c2nc3ccccc3n2CCCCOc2cc(C)ccc2C)CC1=O (stereo not given),inactive: -30.2%
2,O=C(CS(=O)(=O)c1cccc2nsnc12)Nc1ccccc1Cl,inactive: -13.4%
3,CCc1nc2ccc(C(=O)NCCc3ccccc3OC)cc2nc1CC,inactive: -20.6%
4,CC1CCCN(C(=O)c2cc3ccc4cccnc4c3[nH]2)C1 (stereo not given),inactive: -14.2%
5,CCOc1ccc(N2CC(NC(=O)c3ccco3)CC2=O)cc1 (stereo not given),inactive: -9.69%
6,Cc1cc2nc(-c3cccc(NC(=O)c4cccc5ccccc45)c3)oc2cc1C,inactive: 25.7%
7,Cc1cccc(OCC(=O)Nc2cccc(OCc3cc(=O)n4cccc(C)c4n3)c2)c1,inactive: 3.6%
8,O=C(/C=C/c1ccccc1)Nc1cc(-c2nc3cc(Cl)ccc3o2)ccc1Cl,inactive: -5.64%
9,CCSc1ncc(Cl)c(C(=O)N2CCN(c3ccccc3OC)CC2)n1,inactive: -14.5%
10,CCOCCCNC(=O)c1ccc(-n2c(-c3ccccc3)cc3c2CCCC3)cc1,inactive: -18.6%
11,CCCCNC(=O)c1ccc2c(c1)N(Cc1ccc(F)cc1)C(=O)c1ccccc1S2=O (stereo not given),inactive: 0.746%
12,COc1cccc(-n2ccnc2SCC(=O)Nc2c(C)cc(C)cc2C)c1,inactive: -19.7%
13,Cc1cc(C)c(NC(=O)Cn2c(=O)c3cccn3c3ccccc32)c(C)c1,inactive: -8.4%
14,COc1ccc(Cn2ccc3nc(C)c(C(=O)Nc4ccc(OC)cc4)cc3c2=O)cc1,inactive: -8.79%
15,COc1ccc(CNC(=O)C2CCN(S(=O)(=O)c3c(C)noc3/C=C/c3ccccc3F)CC2)cc1,inactive: 1.48%
16,Cc1cccc(C(=O)OCc2cc(=O)n3ccsc3n2)c1,inactive: -1.48%
17,CC(C(=O)NCCSCc1cccc(Cl)c1)N(c1ccccc1)S(C)(=O)=O (stereo not given),inactive: -30.9%
18,CC(=O)Nc1nc2n(n1)C(c1ccc(F)cc1)C=C(c1ccc(Cl)cc1)N2 (stereo not given),inactive: -13.4%
19,COc1ccc(CCNC(=O)CCn2c(=O)c3ccccc3n(Cc3ccccc3F)c2=O)cc1OC,inactive: 6.64%
20,Cc1ccc(-n2c(C)cc(C(=O)C(=O)Nc3ccccc3)c2C)c(C)c1,inactive: -16.8%
21,O=C(CSc1nc2c([nH]c3ccccc32)c(=O)n1-c1ccc(Cl)cc1)N1CCc2ccccc21,inactive: 2.1%
22,CSc1cccc(NC(=O)c2cnn(-c3ccc(F)cc3)c2-n2cccc2)c1,inactive: 0.748%
23,Cc1ccc(-c2nc3c(c(SCc4ccc(Br)cc4)n2)Cc2c(CO)cnc(C)c2O3)cc1,inactive: -8.35%
24,CC(=O)OCC(COC(C)=O)OC(C)=O,inactive: -15.2%

row,Structure (SMILES),activation
1,O=C(Cn1ncn2c(cc3sccc32)c1=O)NCCc1ccccc1,inactive: -15.2%
2,COc1ccc(CCNC(=O)CCc2c(C)c3cc4c(C)c(C)oc4cc3oc2=O)cc1OC,inactive: -1.95%
3,Cc1ccc2c(=O)cc(C(=O)Nc3ccc(S(=O)(=O)N(C)c4ccccc4)cc3)oc2c1C,inactive: -10.3%
4,CC(C)(C)OC(=O)N1CCC(c2c(C(=O)NCc3ccccc3)cnn2-c2cccc(F)c2)CC1,inactive: -15%
5,CCOc1ccccc1NC(=O)CSc1nnc2[nH]c(=O)cc(C)n12,inactive: -12.6%
6,Cc1cc(O)c(C(c2ccccc2)N2CCCCC2)c(=O)n1Cc1ccco1 (stereo not given),inactive: 0.129%
7,CCCCn1cc(S(=O)(=O)c2ccc(C)cc2)c(=O)c2cc(F)c(N3CCCCC3)cc21,inactive: -5.09%
8,COc1ccccc1-c1nc2n(n1)C(c1ccccc1Cl)C(C(=O)Nc1cccnc1)=C(C)N2 (stereo not given),inactive: -10.7%
9,CC(=O)N1c2ccccc2C(=O)C1N1CCN(c2ccccc2F)CC1 (stereo not given),inactive: -6.37%
10,CCC(C(=O)Nc1cccc(Cl)c1C)n1nc(C)c2sc3ccccc3c2c1=O (stereo not given),inactive: -8.49%
11,COc1ccc(-c2noc(CN(C)S(=O)(=O)c3c(C)cc(C)cc3C)n2)cc1OC,inactive: -13.1%
12,COc1ccc(C)cc1NC(=O)c1ccc(NS(=O)(=O)c2c(C)noc2C)cc1,inactive: -14.2%
13,Cc1ccc(-c2nc(CCNC(=O)c3ccc(C)c(C)c3)cs2)cc1,inactive: 16.6%
14,CCOC(=O)c1cnc2cc(C(F)(F)F)ccc2c1Nc1cc(C)ccc1OC,inactive: -35.6%
15,CCOC(=O)c1ccc(NC2=CC(c3ccc(OCC)cc3)N(c3ccc(C(=O)OCC)cc3)C2=O)cc1 (stereo not given),inactive: -12.2%
16,Cc1ccc(S(=O)(=O)c2c(O)cc(C)c(NS(=O)(=O)c3ccc(Br)cc3)c2C)cc1,inactive: -24.7%
17,CCSc1nn(CC(=O)Nc2cccc(CC)c2)c(N)c1S(=O)(=O)c1ccccc1,inactive: -29.8%
18,Cc1oc(-c2ccc(Cl)cc2)nc1CN1CCCC(C(=O)NCCc2ccc(Cl)cc2)C1 (stereo not given),inactive: -10.2%
19,COCCCNC(=O)C1CCN(Cc2cc3ccccc3n2Cc2ccccc2C)CC1,inactive: -3.31%
20,O=C(CSc1nnc(-c2ccccc2Cl)o1)N1CCCc2ccccc21,inactive: -10.8%
21,CCCCCN(CCCOC)C(=O)C(CCC(=O)O)NC(=O)c1ccc(Cl)c(Cl)c1 (stereo not given),inactive: -17.2%
22,COc1ccc(NC(=O)c2c(NCc3cccs3)sc3c2CCC(C)C3)c(OC)c1 (stereo not given),inactive: -16%
23,CC(=O)N1CCc2cc(Br)cc(S(=O)(=O)CCC(=O)N3CCN(c4ccc(F)cc4)CC3)c21,inactive: 1.36%
24,Cc1c(C(=O)N(Cc2ccccc2F)C2CCS(=O)(=O)C2)oc2ccccc12 (stereo not given),inactive: -13%

row,Structure (SMILES),activation
1,CCOc1ccc(C(=O)c2cn(CC(=O)Nc3ccc(Cl)cc3)c3cc4c(cc3c2=O)OCO4)cc1,inactive: -6.43%
2,COc1ccc(-c2nnc(SCC(=O)Nc3cccc(C(F)(F)F)c3)s2)cc1,inactive: -33.8%
3,COc1ccc(S(=O)(=O)NCC(c2cccs2)S(=O)(=O)c2ccccc2)cc1OC (stereo not given),inactive: -3.5%
4,Cc1nn(C)c2c1c(C(F)(F)F)cc(=O)n2C(C)C(=O)Nc1ccccc1F (stereo not given),inactive: -27.9%
5,COc1cc(/C=C/c2nc(C#N)c(N3CCN(C)CC3)o2)cc(OC)c1OC,inactive: -7.23%
6,Cc1ccc(CN2CCC(CNC(=O)c3cnn(-c4ccccc4Cl)c3C3CCN(C(=O)OC(C)(C)C)CC3)CC2)cc1,inactive: -11.6%
7,CSc1cccc(NC(=O)C2CCN(c3nc4ccccc4[nH]3)CC2)c1,inactive: -8.68%
8,Cc1ccc(Cn2c(SCc3ccc(C(=O)NC4CCCCC4)cc3)nc3ccncc32)cc1,inactive: -8.96%
9,COc1ccc(Cl)c2sc(NC(=O)c3ccc(S(=O)(=O)N4CCOCC4)cc3)nc12,inactive: -16.9%
10,CCc1ccc(NC(=O)Cn2c(=O)n(-c3ccc(Cl)c(Cl)c3)c(=O)c3c(C)c(C)sc32)cc1,inactive: -4.74%
11,Cc1c(-c2nc(-c3ccccc3)no2)nnn1-c1ccc(F)c(Cl)c1,inactive: -17.3%
12,COc1cccc(NS(=O)(=O)c2ccc3c(c2)n(C)c(=O)n3C)c1,inactive: -12.4%
13,COc1ccc(NC(=O)COCc2cc(-c3ccc4c(c3)OCO4)on2)cc1,inactive: -4.26%
14,CN(C(=O)c1ccc2c(c1)N(Cc1cccc(Cl)c1)C(=O)c1ccccc1S2(=O)=O)C1CCCCC1,inactive: -18.6%
15,CCOC(=O)C(CC)n1nnc2sc(-c3ccccc3)cc2c1=O (stereo not given),inactive: -11.2%
16,CC(=O)c1cccc(NC(=O)CSc2nnc3ccc(-c4ccc(Br)cc4)nn23)c1,inactive: -12.2%
17,O=C(NCCS(=O)(=O)N1CCN(c2ccc(F)cc2)CC1)C(c1ccccc1)c1ccccc1,inactive: -18.7%
18,Fc1ccc(C(c2nnc(-c3ccccc3)o2)N2CCN(c3cccc(Cl)c3)CC2)cc1 (stereo not given),inactive: -5.62%
19,CCc1ccccc1NC(=O)CSc1nncn2c1cc1oc(C)cc12,inactive: -15.8%
20,CCOc1ccc(NC(=O)CSc2cn(CCNC(=O)c3ccccc3F)c3ccccc23)cc1,inactive: -6.7%
21,Cn1c2ccccc2c2cnn(CC(=O)NCCCN3CCCCC3)c(=O)c21,inactive: -10.2%
22,COc1ccc(CN2C(=O)C(NC(=O)c3cccc(C)c3)(C(F)(F)F)N=C2c2ccccc2)cc1 (stereo not given),inactive: -3.28%
23,Cc1ccc(CNC(=O)CSc2nc3c(sc4ccccc43)c(=O)n2CCCOC(C)C)cc1,inactive: -6.45%
